Assay results taken from PubChem BioAssay AID1347073 (National Center for Advancing Translational Sciences (NCATS), 2019).
About 200 (0.44%) of roughly 45,000 compounds were called active. Not shown: some 7% with an inconclusive outcome. The call rests on the fitted dose curve; in most records, active means well fitted activation curve with a large enough effect; inconclusive means small, poorly fitted or top-dose-only effect; inactive means no such curve, though single readings can be large or run the other way. Some of the results follow.

assay: qHTS of TDP-43 Inhibitors: NCGC Sytravon Library Screen; conditions: yeast TDP-43 toxicity rescue, BacTiter-Glo growth, 24 h; series mostly up to 46.1 µM; growth rescue (activation): at the top concentration; further: nearly all actives have a fitted effect of over 55% in size; on growth rescue (activation): 0% is about no effect
How it was run: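 TDP-43-expressing yeast, pregrown in raffinose, seeded at OD600 0.02 in galactose medium with compound for 24 hr at 30 deg C. Growth read by BacTiter-Glo luminescence, so rescue of toxicity appears as activation.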
Potency means the concentration at half of the fitted maximal effect.

Structure (SMILES)	growth rescue (activation)	Potency
COc1ccc(N2C(=O)CCC(C(=O)N(C)CCc3ccccn3)C2c2ccc(OC)c(OC)c2)cc1 (centres undefined)	inactive: 10.3%	–
CCCCn1c(N)c(N(CCC(C)C)C(=O)c2ccccc2C)c(=O)[nH]c1=O	inactive: 18.2%	–
O=c1c2ccccc2c(C=Nc2ccc(O)cc2)c(O)n1Cc1ccccc1	inactive: 16.4%	–
COCCCN1C(=O)/C(=C/c2ccc(CNS(=O)(=O)c3ccccc3)o2)C(C(=O)OC)=C1C	inactive: -10.2%	–
Cc1cccc(OCC(=O)Nc2ccccc2C(=O)N2CCOCC2)c1	inactive: -19.8%	–
Cc1ccc(NC(=O)CN2C(=O)NC(C)(c3ccc(Cl)cc3)C2=O)cc1S(=O)(=O)N1CCOCC1 (centres undefined)	inactive: 11.2%	–
CCc1ccc(C(=O)NNC(=O)CCC2CCCCC2)cc1	inactive: 33.1%	–
COc1cc(/C=C2\SC(=S)N(Nc3ncc(C(F)(F)F)cc3Cl)C2=O)ccc1O	inactive: -6.01%	–
O=C(Nc1ccc(S(=O)(=O)NCc2ccco2)cc1)c1ccc2ccccc2n1	inactive: 22.8%	–
COc1ccc(NC(=O)CN(C)CC(=O)Nc2cccc3ccccc23)c(OC)c1	inactive: 15.2%	–
CSc1ccc(S(=O)(=O)Nc2ccccc2C(=O)N2CCOCC2)cc1	inactive: 5.56%	–
Cc1[nH]c(=S)[nH]c(=O)c1Cc1ccc(OCC(C)C)cc1	inactive: 1.81%	–
Cc1nc2ccccc2n(CC(=O)Nc2cc(Cl)cc(Cl)c2)c1=O	inactive: 24.8%	–
CSc1ccccc1C(=O)C1CCCN(C(=O)NC(C)C)C1 (centres undefined)	inactive: 5.35%	–
Cc1ccc(NC(=O)COc2ccc(CCO)cc2-n2nc3ccccc3n2)cc1C	inactive: 27.6%	–
CCOc1ccc(S(=O)(=O)N2CCC(C(=O)NCc3ccco3)CC2)cc1C	inactive: 19.1%	–
CCC(C)OC(=O)C[N+](C)(C)CCOC1CC2CCC1(C)C2(C)C (centres undefined)	inactive: -4.91%	–
O=c1[nH]c2ccccc2n2c(=S)[nH]nc12	inactive: 6.43%	–
COc1ccc(C(c2c(O)nc[nH]c2=O)c2c(O)nc[nH]c2=O)cc1	inactive: 18%	–
O=C(CSc1nccc(=O)[nH]1)Nc1cc(C(F)(F)F)ccc1N1CCOCC1	inactive: -27.3%	–
CN1C(=O)C2(OCC(C)([N+](=O)[O-])CO2)c2ccccc21 (centres undefined)	inactive: 4.24%	–
COc1ccc(CN(Cc2ccc(C(=O)O)cc2)C(=S)Nc2ccc(C)cc2)cc1OC	inactive: 9.56%	–
CC1(Cc2ccc(OC(F)(F)F)cc2)C(=O)Nc2ccc(OC(F)(F)F)cc21 (centres undefined)	inactive: 19%	–
O=C(OCC(=O)N1CCN(C(=O)c2ccco2)CC1)c1cc(F)c(F)cc1Cl	inactive: 4.97%	–
Cc1cc(NC(=O)CSc2ncnc3sccc23)no1	inactive: 1.98%	–
OC(c1cccc(Cl)c1)c1nc(-c2ccc3c(c2)OCO3)cs1 (centres undefined)	inactive: 9.13%	–

Structure (SMILES)	growth rescue (activation)	Potency
O=C(N/N=C/c1ccc2c(c1)OCO2)c1sc2cc(Cl)ccc2c1Cl	inactive: 15.3%	–
CCN(CC)S(=O)(=O)c1ccc(/C=C/C(=O)OCC(=O)Nc2cccc3ccccc23)cc1	inactive: 7.52%	–
Cc1ccc(N2C(=O)N(CC(=O)Nc3cc(C)cc(C)c3)C(=O)C2C)cc1 (centres undefined)	inactive: 6.22%	–
COc1ccc(NC(=O)c2ccc(C)o2)c([N+](=O)[O-])c1	inactive: -13.8%	–
CCCCCc1nnc(NC(=O)NS(=O)(=O)c2ccc(C)cc2)s1	inactive: 3.94%	–
Cc1cccnc1C(NC(=O)C1CCN(CCCOc2ccc(F)cc2)CC1)c1ccccc1 (centres undefined)	inactive: 8.24%	–
C=CCNC(=O)CC(C)C(CCCCC)C(=O)O (centres undefined)	inactive: 14.3%	–
CCn1nc(C)c(CN2CCN(Cc3ccsc3)C(CCO)C2)c1C (centres undefined)	inactive: 7.15%	–
CNc1cnc(-c2ccc(C(=O)N3CCOCC3)cc2)cn1	inactive: 5.18%	–
COc1ccc(NC(=O)CSc2ccccc2)cn1	inactive: 28.5%	–
COc1ccc(F)cc1Cn1nc(C(=O)O)c2ccccc2c1=O	inactive: 9.39%	–
Cc1cc(-c2nc3ccccc3c(=O)o2)ccc1[N+](=O)[O-]	inactive: 1.77%	–
COCc1cc(C)nc(SCC(=O)Nc2ccc(N3CCOCC3)cc2)c1C#N	inactive: 5.88%	–
O=C(Cc1ccccc1C(=O)O)Nc1cccc2ccccc12	inactive: 12.3%	–
Cc1ccc(S(=O)(=O)N2CCC[C@H]2C(=O)Nc2ccccc2Cl)cc1	inactive: 23.9%	–
CCC(OC(=O)c1ccco1)C(=O)NCc1ccc(OC)cc1 (centres undefined)	inactive: 5.01%	–
COc1ccc(CN(Cc2ccc(C(=O)O)cc2)C(=S)Nc2ccccc2F)cc1OC	inactive: -2.26%	–
COc1ccccc1NS(=O)(=O)c1cccc(NC(=O)c2cncc(Br)c2)c1	inactive: -19.6%	–
O=C(NNC(=O)c1ccccc1-c1ccccc1C(=O)O)c1ccccc1	inactive: 3.79%	–
COC(=O)c1cc2c(ccn2-c2ccc(F)cc2)n1CC(=O)OC(C)C	inactive: 17.2%	–
CC1Cc2ccccc2N1C(=O)COC(=O)c1ccc([N+](=O)[O-])o1 (centres undefined)	inactive: 37.2%	–
O=C1CS/C(=N\N=C\c2ccco2)N1c1ccccc1	inactive: -7.72%	–
CC(NC(=O)COC(=O)c1cc(S(=O)(=O)N2CCOCC2)ccc1F)c1ccccc1 (centres undefined)	inactive: 8.45%	–
O=[N+]([O-])c1cc(S(=O)(=O)Nc2cccc(Cl)c2)ccc1N=Nc1c(O)[nH]c2ccccc12	inactive: 4.46%	–
O=C(NCc1cccnc1)c1ccc(CS(=O)(=O)c2ccc(Cl)cc2)o1	inactive: -5.7%	–
Cc1cccc(NS(=O)(=O)c2cccc3nonc23)c1	inactive: 27%	–

Structure (SMILES)	growth rescue (activation)	Potency
CCCc1nc2sc3c(c2c(=O)n1NC(=O)CCC(=O)OC)CCCC3	inactive: 12.3%	–
CC1(C(=O)Nc2ccccc2)Cc2c(-c3cccc(C(N)=O)c3)ccnc2O1 (centres undefined)	inactive: -4.26%	–
O=C1c2ccccc2C(=O)N1OCc1c(F)cccc1Cl	inactive: -17.8%	–
O=C(CSc1ccc([N+](=O)[O-])cc1)Nc1cccc(S(=O)(=O)Nc2ccccc2F)c1	inactive: -6.21%	–
COc1cc(OC)cc(C(=O)N[C@H](C(=O)Nc2cc(F)ccc2C)C(C)C)c1	inactive: 0.644%	–
CCOC(=O)c1sc(C)c2c(=O)n(Cc3ccc(Cl)cc3)cnc12	inactive: 1.62%	–
CC1CCCN(CCCN2C(=O)C3C(C(=O)Nc4cccc(Cl)c4)C4C=CC3(O4)C2C(=O)NC2CCCCC2)C1 (centres undefined)	inactive: 12.1%	–
Cc1ccccc1-c1nc(CN2CCCC2c2ccc(F)cc2)c(C)o1 (centres undefined)	inactive: 2.27%	–
COC(=O)c1ccc(NC(=S)NC2CC(C)(C)NC(C)(C)C2)cc1	inactive: 20.4%	–
COC(=O)c1c(N2C(=O)CC(Sc3ccccc3C(=O)O)C2=O)sc2c1CCCC2 (centres undefined)	inactive: 9.74%	–
Cc1cc(C)nc(N/N=C/C2=C(N3CCOCC3)C(=C\c3ccc(Cl)cc3)/CC2)n1	inactive: 13%	–
CCOc1ccc2c(=O)c(-c3ccc4c(c3)OCCCO4)c(C)oc2c1	inactive: -1.61%	–
CCn1ncc(Br)c1C(=O)Nc1cc(C(=O)OC)ccc1C(=O)OC	inactive: 17.3%	–
Cc1nc(-c2ccccc2)ccc1C(=O)O	inactive: 3.2%	–
Cc1cc(NS(=O)(=O)c2ccc(NC(=O)C(C)Oc3ccccc3Cl)cc2)no1 (centres undefined)	inactive: 20.8%	–
COc1ccc(-c2nnc(SCC(=O)N3CCCC3)o2)cc1	inactive: 22.6%	–
Cc1occc1C(=O)N/N=C/c1ccc(Cl)c([N+](=O)[O-])c1	inactive: 4.78%	–
Cc1ccc2c(c1)N(CC(=O)Nc1nccs1)C(=O)CO2	inactive: 25.6%	–
Cn1c(CCC(=O)O)nc2cc(S(=O)(=O)N3CCCC3)ccc21	inactive: -5.3%	–
Cc1nc2c(OCc3ccc(F)cc3)cccn2c1N(C)C(=O)CCC1CCCC1	inactive: 2.61%	–
CCOC(=O)N1CCN(C(=O)CNC(=O)c2nn(-c3ccc(OC)cc3OC)c(=O)c3ccccc23)CC1	inactive: -3.37%	–
COC(=O)c1cc2sc(C)cc2n1Cc1ccc(F)cc1Cl	inactive: 8.39%	–
S=C(NCCc1cnc[nH]1)NC1CCCC1	inactive: 5.15%	–
CC1CCCCC12NC(=O)N(CC(=O)NCc1ccccc1)C2=O (centres undefined)	inactive: 1.06%	–
Nn1c(SCc2cccc(Oc3ccccc3)c2)nnc1C(F)(F)F	–	active: 12.6 µM
O=C(CN1CCN(c2ccc(O)cc2)CC1)Nc1ccc(-c2ccccc2)cc1	inactive: 1.17%	–

Structure (SMILES)	growth rescue (activation)	Potency
Cc1ccc(-n2nnnc2SC(C(=O)c2c[nH]c3ccccc23)c2ccccc2)cc1 (centres undefined)	inactive: -22.3%	–
CCCC(NC(=O)CCl)c1ccccc1 (centres undefined)	inactive: 10.6%	–
CCOC(=O)c1c(C(=O)OCC)c(C)n(Cc2cc(OC)c(OC)c(OC)c2)c1C	inactive: 2.26%	–
C=CCN1C(=O)/C(=C\C(C)=C\c2ccccc2)SC1=S	inactive: -8.98%	–
COC(=O)c1sc(N2C(=O)c3oc4ccccc4c(=O)c3C2c2cccc(O)c2)nc1C (centres undefined)	inactive: 14.7%	–
Cc1cc2oc(C(=O)NCCc3ccc(S(N)(=O)=O)cc3)c(C)c2cc1C	inactive: -4.38%	–
CCCn1c(N)c(C(=O)CSc2nnc(C)n2Cc2ccccc2)c(=O)n(C)c1=O	inactive: 10%	–
CCCNC(=O)C1CC(=O)N(c2ccc(OCC)cc2)C1 (centres undefined)	inactive: -6.35%	–
CNc1cnc(-c2ccc(O)c(OC)c2)cn1	inactive: 7.24%	–
Cc1ccccc1NC(=O)NCC1CCN(c2ccc(S(=O)(=O)N3CCOCC3)cc2)CC1	inactive: -4.61%	–
CCC(C)Cn1c(C(C)C)nc2ccccc21 (centres undefined)	inactive: 11.5%	–
COc1ccc(-n2cc(-c3ccccc3)[n+]3c2CCCCC3)cc1	inactive: 0.505%	–
COc1cc(/C=C/C(=O)O)cc(S(=O)(=O)NNC(=O)c2ccc3c(c2)OCO3)c1OC	inactive: 13.5%	–
COc1ccc(CN(C)C(C)C(=O)Nc2cccc3ccccc23)cc1 (centres undefined)	inactive: 8.13%	–
O=C(CCCSc1nc2ccccc2[nH]1)NCc1ccccc1Cl	inactive: 19.8%	–
O=S(=O)(O)c1cc(O)c2c(O)c(N=Nc3cc(Cl)ccc3O)c(S(=O)(=O)O)cc2c1	inactive: -59.1%	–
Cc1cccc([C@@H]2C[C@H]3CN(Cc4cccc(Cl)c4)C(=O)[C@]34CCCN24)n1	inactive: 1.64%	–
Nc1nc(CSc2nnnn2-c2ccc(Cl)cc2)nc(N2CCOCC2)n1	inactive: -7.6%	–
O=C(O)c1cccc(NC(=O)c2ccc(N3C(=O)c4ccc(C(=O)Nc5cccc(C(=O)O)c5)cc4C3=O)cc2)c1	inactive: 11.4%	–
CS(=O)(=O)c1ccc(C(=O)OCC(=O)NC(=O)C2COc3ccccc3O2)cc1[N+](=O)[O-] (centres undefined)	inactive: 21.7%	–
O=C(NCCc1c[nH]c2ccccc12)c1ccc2c(c1)OCO2	inactive: 22.3%	–
CCN1C(=O)c2ccccc2S(=O)c2ccc(C(=O)N3CCOCC3)cc21 (centres undefined)	inactive: 13%	–
CCOc1cccc(N(C(=O)C2COc3ccccc3O2)C(C(=O)NC2CCCCC2)c2ccc(O)cc2)c1 (centres undefined)	inactive: -22.2%	–
Clc1nnc(NN=C2CCCC2)c2ccccc12	inactive: 8.95%	–
Cc1cc2ccccn2c1C(=O)Nc1ccc(Cl)cc1	inactive: 18%	–
CCOc1cc(/C=C/C(=O)O)ccc1OCCO	inactive: -7.21%	–
